PubChem BioAssay AID1159614 (National Center for Advancing Translational Sciences (NCATS), 2016)
About 65 (0.1%) of roughly 45,000 compounds were called active. Calls follow the shape of the dose curve; as a rule, active = well fitted activation curve with a large enough effect; inconclusive = small, poorly fitted or top-dose-only effect; inactive = no such curve, though single readings can be large or run the other way. This is one part of the list.

target: Galactocerebrosidase (Homo sapiens) (UniProt P54803); experiment: A Novel Cell-Based Assay to Identify Small Molecules for B -Galactocerebrosidase; settings: 145M-Twi-hGALC-G270D cells (Twitcher mouse brain line with human GALC G270D), HMU-beta-Gal fluorescence, 48 h; series mostly up to 57.5 µM; activation: at the top concentration; also: 0% is about no effect; nearly all actives have a fitted effect of over 65% in size
Description: Lysosomal storage diseases (LSDs) are caused by genetic mutations in genes encoding proteins important for normal lysosomal function. Globoid cell leukodystrophy (GLD), mostly known as Krabbe disease, is a prototype of the neurological LSDs caused by deficiency of beta-galactocerebrosidase (GALC). In brain specimens of GLD patients, psychosine levels are substantially elevated. At elevated concentrations, psychosine becomes cytotoxic to neuronal cells, particularly to oligodendrocytes (OLG), neural cells responsible for myelin formation. Therefore, the biochemical disturbances in GLD are manifested by different degrees of brain demyelination resulting in a broad spectrum of neurological manifestations. Most of the FDA-approved therapies are based on enzyme replacement therapeutic (ERT) agents, which treat non-neurological symptoms of Gaucher disease, Fabry disease, few mucopolysaccharidoses and Pompe disease. Unfortunately, in GLD, a primarily neurological LSD, ERT agents, as large molecular weight molecules unable to cross the blood-brain barrier, which makes this an inefficacious therapeutic approach. In GLD, increasing the residual GALC activity just above the critical threshold (~10% of wild type enzymatic activity), the cytotoxic levels of psychosine will be reduced, avoiding the OLGs apoptosis and the subsequent demyelination process. This will translate in disease stabilization and amelioration of GLD patient symptoms.
A cell-based assay in 1,536-well plate format was developed to implement a quantitative high-throughput screening (qHTS) assay using GLD-disease relevant cells to identify small molecules that produce enhancements of the residual enzymatic activity levels of mutants GALC found and prevalent in GLD patients. Compounds that are active may therefore have some therapeutic application for GLD. After the treatment of live cells for a determined period, using a fluorescent GALC specific substrate, the mutant residual GALC activity is measured. This cell-based qTHS assay was used to screen part of the MLPCN library for small molecule able to increase the mutant GALC enzymatic activity. In this assay, increased fluorescent signal corresponds to enhanced levels of mutant GALC residual enzymatic activity. Activation is the desired outcome for this assay.
NIH Chemical Genomics Center [NCGC]
NIH Molecular Libraries Probe Centers Network [MLPCN]
Assay Submitter (PI): Gustavo Maegawa MD,PhD, University of Florida, Gainesville, FL
2)#Two cell lines were established for the assay: 145M-Twi-hGALC-G270D (brain-derived Twitcher cell line stably expressing human GALC-G270D) and 145M-Twi-hGALC-WT (same 145M-Twi stably expressing human GALC wild type). The Twitcher is the murine C57B/6 model for GLD with naturally occurring homozygous nonsense GALC mutation. The 145M-Twi cell line was established at Maegawa lab (Ribbens J et al 2014).
a.#Media: DMEM/F12 (1:1) with 10% fetal bovine-serum (FBS) with penicillin/streptomycin (PS-1X - 100 I.U./mL of penicillin+100 ug/mL of streptomycin).
b.#The 6-Hexadecanoylamino-4-methylumbelliferyl-b-D-galactoside (HMU-B-gal) substrate was prepared as per Wiederschain et al 1992. Using 20-mL borosilicate tubes, 2.20 mg of HMU-b-Gal was added in each tube to prepare substrate-film with a final air-nitrogen stream evaporation to remove all diluent solvents.
c.#The HMUb-Gal substrate buffer consists of 0.2 M Na2HPO4 (sodium phosphate dibasic)/ 0.1 M Citric Acid with the pH adjusted to 5.2 using HCl. Sodium Azide at 0.02% and Sodium Taurocholate (NaTC) at 1 mg/mL were added to this substrate buffer.
d.#The HMU-b-Gal stopping buffer consist of 0.5 M NaHCO3 (sodium bicarbonate) /0.5 M Na2CO3 (sodium carbonate). […] Triton X-100 at 0.25% was added.
4)#Preparation of HMU-b-Gal substrate tubes
Adding 18.6 mL of the HMUb-Gal substrate buffer to each 20-mL tube (2.20 mg of HMU-b-Gal) will reach a concentration of 0.2 mM. Vortex well the tube until the solution is fully homogenized (clear cloudy solution). […]

Chain of UniProt P54803 (P54803 whole entry, looked up): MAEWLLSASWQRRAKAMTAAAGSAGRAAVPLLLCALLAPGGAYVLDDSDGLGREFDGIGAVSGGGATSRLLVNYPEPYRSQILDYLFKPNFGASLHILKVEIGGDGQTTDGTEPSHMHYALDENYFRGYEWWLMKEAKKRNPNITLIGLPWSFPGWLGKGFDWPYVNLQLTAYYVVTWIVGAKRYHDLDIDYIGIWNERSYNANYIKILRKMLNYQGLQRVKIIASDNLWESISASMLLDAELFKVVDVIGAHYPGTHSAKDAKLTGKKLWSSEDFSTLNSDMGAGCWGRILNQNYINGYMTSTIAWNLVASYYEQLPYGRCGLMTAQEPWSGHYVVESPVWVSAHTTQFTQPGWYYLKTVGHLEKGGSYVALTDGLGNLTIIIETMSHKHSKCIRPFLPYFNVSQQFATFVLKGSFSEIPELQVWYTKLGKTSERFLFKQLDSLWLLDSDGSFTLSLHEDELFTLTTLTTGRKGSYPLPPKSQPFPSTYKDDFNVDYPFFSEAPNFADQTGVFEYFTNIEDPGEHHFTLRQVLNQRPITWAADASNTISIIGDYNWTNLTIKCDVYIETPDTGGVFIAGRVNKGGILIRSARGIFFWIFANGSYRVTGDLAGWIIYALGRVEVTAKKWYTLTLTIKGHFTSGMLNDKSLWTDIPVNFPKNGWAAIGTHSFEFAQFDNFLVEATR

activation, inactive:
CN(c1ccc(Cl)cc1)S(=O)(=O)c1nnc(NC(=O)c2ccco2)s1 -6.32%
O=C(CCn1c(=O)c2ccccc2n(Cc2ccc(Cl)cc2)c1=O)NCc1ccc2c(c1)OCO2 1.68%
CCOc1ccc(-n2c(SCC(=O)N3CCCc4ccccc43)nc3c([nH]c4ccccc43)c2=O)cc1 -13.6%
Cc1cccc(-n2ccnc2SCC(=O)Nc2cc(C(F)(F)F)ccc2Cl)c1 -39.3%
CCCCN(C)CC(O)Cn1cc(/C=C/C(=O)c2ccc(OCC)cc2)c2ccccc21 (configuration not stated) -13%
CCCCC(=O)Nc1cccc(-c2nc3ccccc3s2)c1 -14.3%
COc1ccc(CCNC(=O)C(=O)Nc2ccc(C)c(C)c2)cc1OC -22.9%
CCn1cc(C(=O)NCc2ccccc2Cl)c(=O)c2cc(S(=O)(=O)N3CCOCC3)ccc21 -8.07%
C#CC(C)(CC)OC(=O)c1ccccc1C(=O)O (configuration not stated) -20.3%
C[C@@H]1C[C@H]2[C@@H]3CCC4=CC(=O)C=C[C@]4(C)[C@@]3(F)[C@@H](O)C[C@]2(C)[C@H]1C(=O)CO -11.2%
CC(C)c1ccc(Nc2c(-c3ccsc3)nc3ccc(Cl)cn23)cc1 -13.6%
Cc1ccc(C)c(Oc2c(C(F)(F)F)oc3c(CN4CCN(C)CC4)c(O)ccc3c2=O)c1 -12.2%
Cc1ccc2nc(NCCc3ccc(Cl)cc3)c3nncn3c2c1 -5.5%
COc1ccc(C)cc1NC(=O)Cc1ccc(NC(=O)N2CCCCc3ccccc32)cc1 -0.783%
CCOC(=O)C1=C(CN(C)Cc2ccccc2)NC(=O)NC1c1ccc(OC(C)C)cc1 (configuration not stated) -13.7%
O=C(Nc1ccccc1[N+](=O)[O-])c1csnn1 -9.48%
CCC(=O)C1=C(c2ccccc2)N(C(=O)CC)n2c(nnc2C2CCCCC2)S1 -21.2%
O=C(CSc1nc(-c2cccs2)cc(C(F)(F)F)n1)Nc1ccccc1Cl -7.45%
O=C(Nc1ccc2nc(SCC(=O)N3CCc4ccccc43)sc2c1)c1ccc(Cl)cc1 -12.2%
Cc1ccc(CNC(=O)c2ccc(NC(=O)c3nsc4ccccc34)cc2)cc1 -28%
COC(=O)c1c(SC)nc2ccccc2c1OCc1cc(C)ccc1C -11.7%
CCCOc1ccc(CNC(=O)c2cc3oc4ccccc4c3n2C)cc1 -4.8%
CCOc1ccccc1NC(=O)C(=O)NCC(c1cccnc1)N1CCN(c2ccccc2)CC1 (configuration not stated) -14%
Cc1ccc(NC(=O)CN2C(=O)C(c3ccc(F)cc3)=NC2(C)C)c(C)c1 -13.2%
Cc1cccc(C(=O)Nc2sc3c(c2C(=O)Nc2ccccc2)CCC3)c1 7.04%
CN(C)c1ccc(CNS(=O)(=O)c2csc(C(N)=O)c2)cc1 24%
CCn1cc2nc(SCc3ccccc3)n(Cc3ccc(C)cc3)c(=O)c2n1 -12.6%
COc1cccc(NC(=O)Nc2cc(-c3cn4cccnc4n3)ccc2OC)c1 -7.8%
O=C(NCC(c1ccco1)S(=O)(=O)c1cccs1)c1ccc(C(F)(F)F)cc1 (configuration not stated) -12.6%
CCOc1cc(Cl)c(S(=O)(=O)n2cc(C)nc2CC)cc1Cl -26%
CCN(CCCCOC(=O)c1ccc(OC)c(OC)c1)C(C)Cc1ccc(OC)cc1 (configuration not stated) -5.06%
COc1ccc(C)cc1NC(=O)c1cc(S(=O)(=O)NCCC2=CCCCC2)ccc1F -10.8%
Clc1ccc(-c2noc3ncnc(N4CCCCC4)c23)cc1 -4.99%
Cc1ccccc1NC(=O)CSc1nc2ccc(NC(=O)c3ccco3)cc2s1 -34.4%
Cc1cc(C(C)(C)C)cc(C)c1CC1=NCCN1 -7.21%
COc1ccc(N2CC(C(=O)Nc3ccccc3-c3nc(-c4ccc(C)cc4)no3)CC2=O)cc1 (configuration not stated) -9.62%
COc1ccc(C(=O)NCCc2nc3ccccc3[nH]2)cc1 3.83%
Cn1c(=O)c2c(nc(NCc3ccccc3)n2Cc2ccc(Cl)c(Cl)c2)n(C)c1=O -5.78%
CCCSc1nc2c(c(=O)[nH]1)C(c1ccc(O)c(OCC)c1)CC(=O)N2 (configuration not stated) -4.32%
COc1ccc(-c2noc(CSc3nnc(C)n3-c3ccc(C)cc3)n2)cc1 -14.6%
COc1cccc(NC(=O)c2oc3ccc(S(=O)(=O)N4CCC5(CC4)OCCO5)cc3c2C)c1 -4.46%
Cc1ccccc1CSCc1ccc(C(=O)NCCc2ccccc2)o1 -13.7%
CC(C)(C)c1ccc(OCc2cc(=O)n3c4c(sc3n2)CCCC4)cc1 -11.8%
CCOc1ccc(C(CC(=O)Nc2ccc(C(=O)OC)cc2)N2Cc3ccccc3C2=O)cc1OC (configuration not stated) -23.7%
Oc1c(C(c2ccc(Cl)cc2Cl)N2CCCC2)sc2nc(-c3ccco3)nn12 (configuration not stated) 2.03%
CCOc1ccc(CCNC(=O)CCSCc2cccc(Cl)c2)cc1OCC 2.58%
COc1ccccc1NC(=O)CSc1nc(-c2cccc(Cl)c2)nc2c1Cc1c(CO)cnc(C)c1O2 -1.28%
Cc1ccc(CCNC(=O)C2CCCN(S(=O)(=O)c3ccc4c(c3)oc(=O)n4C)C2)cc1 (configuration not stated) -10.1%
O=C(COc1ccc(F)cc1)OCc1cc(=O)n2nc(C3CC3)sc2n1 -8.4%
CCc1ccc(-n2nc(C)c3c(C)cc(=O)n(CC(=O)N(CC)Cc4ccccc4)c32)cc1 -12.5%
CCc1ccc(C(=O)c2cn(Cc3ccccc3)c3cc(OC)c(OC)cc3c2=O)cc1 -18.7%
CN(C)c1ccc(NC(=O)C2(c3cccs3)CCOCC2)cc1 -26.6%
O=C(Nc1cc(Cl)ccc1O)c1cc2nc(-c3ccc4c(c3)OCO4)cc(C(F)(F)F)n2n1 -14%
CCc1ccccc1NC(=O)COC(=O)c1cn(CC)c2nc(C)ccc2c1=O -12.3%
CCCCOC(=O)c1ccc(Nc2nc3ccc(C)cc3n3cnnc23)cc1 21.9%
CCCOc1ccc(Cn2c(=O)sc3ccccc32)cc1 -15.4%
O=C(CSCc1ccc(F)cc1)N1CCc2c([nH]c3ccccc23)C1c1ccccc1 (configuration not stated) 0.816%
CCCCCNc1nc2c(-c3ccccc3)nnn2c2ccccc12 -11%
CCc1ccc(OC(=O)c2sc3ncn(Cc4cccc(F)c4)c(=O)c3c2C)cc1 5.87%
Cc1ccc(-c2nc(SCC(=O)Nc3cc(C)on3)c3c(=O)n(C)c(=O)n(C)c3n2)cc1 -16.6%
O=C(CC(=O)Nc1ccccc1F)Nc1ccc2nc3n(c(=O)c2c1)CCCCC3 -8.55%
Cc1cccc(N2CCN(C(=O)c3ccc4c(c3)N(Cc3cccc(Cl)c3)C(=O)c3ccccc3S4=O)CC2)c1C (configuration not stated) -11.3%
COc1ccccc1NC(=O)c1c(NC(=O)c2cccs2)sc2c1CCC(C(C)(C)C)C2 (configuration not stated) -4.83%
NS(=O)(=O)c1ccc(CCNC(=O)CCn2c(=O)c3cccn3c3cccnc32)cc1 -4.68%
COc1ccc(Cl)cc1NC(=O)c1cc2nc(-c3ccc(C)cc3)cc(C(F)(F)F)n2n1 -15.4%
Cc1cc(Br)ccc1NC(=O)C(NS(=O)(=O)c1cccs1)c1ccccc1 (configuration not stated) -6.91%
COc1cc2nc(N3CCN(C(=O)C4COc5ccccc5O4)CC3)nc(N)c2cc1OC (configuration not stated) -10.6%
Cc1cc(F)ccc1NC(=O)CN1C(=O)CCc2cc(S(=O)(=O)N3CCOCC3)ccc21 -7.83%
Fc1ccc(Nc2nc(-c3ccc(F)cc3)c3c(n2)-c2ccccc2OC3)cc1 -7.76%
O=C(c1cnc(N2CCCCC2)c2ccccc12)N1CCN(c2ccc(F)cc2)CC1 3.92%
Cc1c(NC(=O)c2ccc(-c3ccc(F)cc3)o2)cccc1-c1nc2ncccc2o1 -7.07%
COc1cccc(C(=O)Nc2ccc3nc(SCC(=O)N4CCc5ccccc54)sc3c2)c1 -6.3%
Cc1sc2c(c1C)c(=O)n(-c1ccc(Cl)cc1)c(=O)n2CC(=O)c1ccccc1 2.34%
CSc1nc(C)cc(Nc2cccc(C(=O)O)c2)n1 -10.8%
COc1cc(NC(=O)CCCN2C(=O)CCn3nc(-c4cn(C)c5ccccc45)cc32)cc(OC)c1 -6.09%
CCOC(=O)C(C)Nc1ncnc2onc(C)c12 (configuration not stated) -1.02%
Cc1ccc(-c2nc3scc(CCNS(=O)(=O)c4c(C)noc4C)n3n2)cc1 -19%
COc1cccc(CNC(=O)c2ccc3c(c2)sc2nc(-c4ccccc4)cn23)c1OC -16.9%
O=c1[nH]c2ccc(S(=O)(=O)Nc3cc(Cl)ccc3O)cc2o1 -8.26%
CCOc1ccccc1CNC(=O)c1cc2oc3ccccc3c2n1CC 4.63%
Cc1nc2c(-c3ccc(F)cc3)c(C)nn2c(C)c1CCC(=O)NCc1cccc(Cl)c1 -14.4%
O=C(OCC1CCCO1)c1ccc2c(c1)N(Cc1cccc(F)c1)C(=O)c1ccccc1S2(=O)=O (configuration not stated) -6.32%
CCC(=O)N1CCc2cc(Br)cc(S(=O)(=O)N3CCN(c4cccc(Cl)c4)CC3)c21 6.98%
Cc1cc2c(cc1S(=O)(=O)CCC(=O)N(C)Cc1ccccc1)OCC(=O)N2 -0.636%
CC1CCc2nc(NC(=O)Cc3ccc(Cl)cc3)sc2C1 (configuration not stated) -12%
CCOc1cccc(C2c3[nH]c4ccccc4c3CCN2C(=O)Cc2cccc(OCC)c2OCC)c1 (configuration not stated) 3.55%
CC1=C(C(=O)OC2CCCC2)C(c2ccc(Cl)cc2)CC(=O)N1 (configuration not stated) -4.89%
COc1ccc(C2=NS(=O)(=O)N(C)C(C(=O)NC(C)c3ccccc3)=C2)cc1OC (configuration not stated) -3.91%
O=C(CSc1nc(-c2ccccc2)no1)N1CCN(c2ccc(F)cc2)CC1 -14.5%
Cc1cc(C)cc(NC(=O)CN(c2cccc(C)c2C)S(=O)(=O)c2ccccc2)c1 -5.04%
COc1ccc2c(CNCCc3ccccc3OC)c(C(=O)O)n(Cc3ccc(F)cc3Cl)c2c1 -10.8%
CSc1cccc(NC(=O)N2CCN(S(=O)(=O)c3ccc4c(ccn4C)c3)CC2)c1 -17%
Cc1cccc(NC(=O)C2CCN(S(=O)(=O)c3c(C)noc3/C=C/c3ccco3)CC2)c1C -20.9%
COc1cccc(N2C(=O)CSC23C(=O)N(Cc2ccccc2F)c2ccccc23)c1 (configuration not stated) -34.5%
CCc1ccccc1NC(=O)Cn1c(=O)oc2ccccc21 -11%
CCCN(C(=O)Cn1nc(Cc2cccnc2)c2ccccc2c1=O)c1ccc(C(C)C)cc1 -13%
CCN(CC)C(=O)Nc1ccc(OCC(O)CNC(C)(C)C)c(C(C)=O)c1 (configuration not stated) -6.45%
